In article PMC4336329 (PLoS ONE, 2015):
Among all 310,000 compounds or so, about 2,200 (0.71%) showed an effect of 50% or more. Effects have a minus sign here. The list shows a part of the results.

Each molecule was assayed against human ether-à-go-go-related gene (hERG) potassium channel (human, UniProt Q12809) (assay: primary screen, population patch clamp on CHO cells stably expressing hERG).
Sequence of human ether-à-go-go-related gene (hERG) potassium channel (Q12809 whole entry, looked up): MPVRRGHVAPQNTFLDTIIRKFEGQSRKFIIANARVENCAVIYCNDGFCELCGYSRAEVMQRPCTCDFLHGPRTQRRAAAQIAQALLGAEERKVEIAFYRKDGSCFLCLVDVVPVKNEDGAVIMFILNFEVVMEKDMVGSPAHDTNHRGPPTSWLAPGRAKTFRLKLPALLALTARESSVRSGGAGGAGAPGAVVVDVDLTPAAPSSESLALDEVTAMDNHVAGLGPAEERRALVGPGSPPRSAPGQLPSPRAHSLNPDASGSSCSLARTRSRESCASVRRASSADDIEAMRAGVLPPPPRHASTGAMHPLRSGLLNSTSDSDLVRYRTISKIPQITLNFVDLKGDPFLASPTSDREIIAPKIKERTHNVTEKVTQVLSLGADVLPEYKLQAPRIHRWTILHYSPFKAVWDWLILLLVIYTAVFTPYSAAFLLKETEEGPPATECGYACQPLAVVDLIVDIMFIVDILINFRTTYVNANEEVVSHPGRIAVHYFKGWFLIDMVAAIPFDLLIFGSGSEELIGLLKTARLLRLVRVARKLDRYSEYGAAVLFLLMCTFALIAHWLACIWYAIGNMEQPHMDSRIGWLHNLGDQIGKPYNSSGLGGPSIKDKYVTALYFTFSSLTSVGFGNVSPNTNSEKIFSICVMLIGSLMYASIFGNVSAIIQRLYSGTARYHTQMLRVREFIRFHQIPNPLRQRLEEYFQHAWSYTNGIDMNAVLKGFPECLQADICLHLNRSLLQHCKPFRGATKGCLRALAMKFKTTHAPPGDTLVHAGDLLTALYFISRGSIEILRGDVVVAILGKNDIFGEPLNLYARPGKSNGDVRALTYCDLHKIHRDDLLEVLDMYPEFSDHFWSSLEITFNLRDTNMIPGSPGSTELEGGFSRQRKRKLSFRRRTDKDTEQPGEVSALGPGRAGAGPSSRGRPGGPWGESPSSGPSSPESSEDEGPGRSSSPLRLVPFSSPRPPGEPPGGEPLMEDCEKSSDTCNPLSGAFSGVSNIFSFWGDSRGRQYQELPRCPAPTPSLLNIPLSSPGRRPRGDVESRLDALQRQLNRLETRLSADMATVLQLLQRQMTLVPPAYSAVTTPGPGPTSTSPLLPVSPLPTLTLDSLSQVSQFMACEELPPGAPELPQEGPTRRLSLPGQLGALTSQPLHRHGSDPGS

SMILES | hERG current change (%, negative = inhibition) at 1uM [%]
COc1cc(S(=O)(=O)NC2CCCCC2C)ccc1-n1cnnn1 (centres unmarked) | 4.35
COc1ccc(/C=C/C(=O)Nc2ccc(-n3nncc3-c3ccc(OC)c(OC)c3)cc2)cc1OC | 2.44
O=C(NC(=S)Nc1ccc(N2CCN(C(=O)c3ccccc3)CC2)cc1)c1cccs1 | 12.1
COCCN(C(=O)c1cccc(-n2cnnn2)c1)c1c(N)n(CC(C)C)c(=O)[nH]c1=O | 7.31
N#C/C(=C1/CCCCCN1)c1nnc2n1CCCCC2 | 16.3
CSc1ccccc1NC(=O)CN(C)C(=O)CCc1c[nH]c2ccccc12 | 8.87
N/C(=N\OC(=O)CCn1cccc(C(F)(F)F)c1=O)c1ccc(OC(F)(F)F)cc1 | 3.35
O=C(CCc1ccccc1)OCC(=O)c1cccc([N+](=O)[O-])c1 | 13.5
CN(c1ccc(C(=O)N2CCN(Cc3ccccc3)CC2)cc1)S(=O)(=O)c1ccc(Cl)cc1 | -2.89
C=Cn1cc[n+](CC(=O)c2ccc(Cl)cc2)c1.[Br-] | 14.4
O=C(Nc1ccc(Cl)cc1)c1cc(S(=O)(=O)N2CCOCC2)cs1 | -7.43
O=C(OCC(=O)N1CCCCCC1)c1cnc(Cl)c(Cl)c1 | 7.98
CCOc1ccc(C)cc1S(=O)(=O)n1nc(C)cc1C | 2.05
O=C(CNC(=O)CNC(=O)c1ccc(Cl)cc1Cl)NCc1cccc(Cl)c1 | 8.83
COc1ccc(C)cc1NC(=O)c1nnn(Cc2cccc(F)c2)c1N | 6.27
Oc1ccc(-n2nnnc2SCc2c(F)cccc2Cl)cc1 | 8.66
O=C(NCc1ccccc1F)c1ccc(S(=O)(=O)N2CCCCCC2)cc1 | 1.6
O=c1[nH]c(/C=C\c2ccc(O)c(O)c2)nc(O)c1[N+](=O)[O-] | 13.1
Cc1ccc(O)c(C(=O)c2cnc3c(c2)CN(CCC(C)C)C(=O)N3)c1 | 16.6
Cn1c(CNS(=O)(=O)c2ccc(Cl)cc2)cc(=O)n(C)c1=O | 12.2
Cc1nn2c(NCC(C)C)c3c(nc2c1-c1ccccc1)CCC3 | 7.45
CC1CCCCN1C(=O)COC(=O)CNC(=O)c1ccc(Cl)cc1Cl (centres unmarked) | 11.3

SMILES | hERG current change (%, negative = inhibition) at 1uM [%]
Cc1cc(C)c2c(CC(=O)NC3CCS(=O)(=O)C3)coc2c1 (centres unmarked) | 15.9
CC1CCN(S(=O)(=O)c2nnc(NC(=O)COc3ccccc3F)s2)CC1 | 4.05
Clc1ccc(OCc2nc(-c3ccncc3)no2)c(Cl)c1 | 7.81
COc1ccccc1Nc1nnc(SCC(=O)c2cc(C)n(CC3CCCO3)c2C)s1 (centres unmarked) | 9.14
COC(=O)C1=C(N)OC2=C(C(=O)CCC2)C1c1ccccc1OC (centres unmarked) | 12.5
COc1ccc(N(CC(=O)NCCc2ccc(C)cc2)S(=O)(=O)c2c(C)noc2C)cc1 | 14.2
COC(=O)c1nnn(CC(=O)Nc2cccc(OC)c2)c1C(=O)OC | 18
Cc1ccc(Cn2c(=N)c(C#N)cc3c(=O)n4cccc(C)c4nc32)cc1 | -2.14
COc1cc(/C=C/c2noc(-c3ccccc3O)n2)ccc1OC(C)=O | 7.33
CCOC(=O)c1ccc(NCCOC)c([N+](=O)[O-])c1 | 4.73
COc1ccc(OC)c(NC(=O)Cc2c(C(=O)O)n(C)c3ccccc23)c1 | -0.65
COCCNC(=O)c1c[nH]c2ccc(S(=O)(=O)N3CCc4ccccc43)cc2c1=O | 5.88
CCOC(=O)N1CCN(C(=O)c2ccc3c(=O)n(Cc4ccc(Cl)cc4)c(=S)[nH]c3c2)CC1 | 11.6
Cc1ccc(/C=N/NC(=O)c2ccc(NC(=O)c3ccc(Cl)cc3)cc2)o1 | 15.5
Cc1cc(C)c(C)c(S(=O)(=O)N2CCN(c3ccc(O)cc3)CC2)c1C | 15.6
O=c1[nH]c2ccccc2c(O)c1O | 10.9
CSc1ccc(CNc2ccc(C)c(C)c2)cc1 | 12.2
COc1ccccc1N(C)S(=O)(=O)c1ccc(C(=O)Nc2ccncc2)cc1 | 2.5
Cc1ccc(C)c(Oc2cc(NN3CCCCC3)c([N+](=O)[O-])cc2[N+](=O)[O-])c1 | 9.22
O=C(O)CCN1Cc2ccccc2C1=O | 15.6
c1ccc2sc(NCC3CCCO3)nc2c1 (centres unmarked) | 22.2
COc1cc(OC)cc(C(=O)NCC(=O)OCC(=O)Nc2ccc3c(c2)OCO3)c1 | 3.94
